This is an account of results in the supplement of paper PMC11417369.

± gives the standard deviation of the averaged measurements. This is one part of the list.

The experiment has as its system PfAP2-G AP2 domain (GST-tagged). Briefly: gcPBM binding intensity (ln(normalized median fluorescence intensity)); higher = stronger DNA binding. In outline: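 Each value is the highest Masliner-normalised natural-log median intensity across replicate spots of either orientation of a probe. The probes were primer-extended double-stranded 36-bp intergenic genomic sequences on an Agilent 4 × 180k array, alongside negative controls, exposed for 1 h to GST-tagged P. falciparum DNA-binding domains expressed in E. coli. Bound protein was picked up with Alexa488 anti-GST antibody and scanned at 488 nm.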
Regarding “AAAAAACAAAAACACACGCACACAAAAAAAAAAAAA [CACACA_site802]”, the “gcPBM binding intensity (ln)” value was determined as 10.2 ± 0.6.

Consider “AAAATATTTATCATTTGTACTTAGATGTAAACTTGA [XGTACX_site1778]”, for which the “gcPBM binding intensity (ln)” value stood at 10.8 ± 0.61.

As for “TATAAAATATAAATAAATAAATAAATATATATATAT [TGCATGCA_negctrl_site448]”, the “gcPBM binding intensity (ln)” value turned out to be 9.9 ± 0.71.

With “TATTTTATACACTTGCTAAAACATTAACACATATGT [CACACA_negctrl_site1818]”, the “gcPBM binding intensity (ln)” value stood at 10.02 ± 0.085.

On to “ATGAAAATATTTAAAAGTACAGAAATATAAAACCTT [XGTACX_site403]”, for which the “gcPBM binding intensity (ln)” value amounted to 11.4 ± 0.79.

Turning to “CACAAATATACAAATACACACAAATATACACATATA [CACACA_site7176]”, the “gcPBM binding intensity (ln)” value is 10.2 ± 0.085.

On to “AAAAAAAAAAAAAAAAGTACAAAAATTATATTAAGA [XGTACX_site4255]”, for which the “gcPBM binding intensity (ln)” value was found to be 11.5 ± 0.84.

For the sequence ACTAATAACAAAAGCTTGCACTTTTTTTTTCCTAAT, the “gcPBM binding intensity (ln)” value came to 10.2 ± 0.11.

With “TATAATTTTCTTAGTAGTACATTTTAAATCTACTAC [XGTACX_site2621]”, the “gcPBM binding intensity (ln)” value is 11.4 ± 0.96.

Take “TGTATCCACATATGTACACACATATATCTGTATATG [CACACA_site5668]”: the “gcPBM binding intensity (ln)” value was determined as 11.4 ± 0.88.

On to “TATGTACAAATATGTACACACACACCGATATATATA [CACACA_site4487]”, for which the “gcPBM binding intensity (ln)” value is 11.6 ± 0.98.

Take “TGTCATAAAACCGTTTGTACATATTAATAGACACCT [XGTACX_site4520]”: the “gcPBM binding intensity (ln)” value turned out to be 11 ± 0.53.

Take “TTGTTATTCCACCGTTGTACAGTTATATACATACAC [XGTACX_site8296]”: the “gcPBM binding intensity (ln)” value amounted to 11.1 ± 0.55.

With “TATAATAATAATGATAGTACGTATGAGTTCAAGAAA [XGTACX_site4918]”, the “gcPBM binding intensity (ln)” value stood at 11 ± 0.63.

With “ATATTCCTTTAATATTGTACTATTTTTTTCCTTATA [XGTACX_site8659]”, the “gcPBM binding intensity (ln)” value worked out at 11.2 ± 0.59.

“ACCTATATAAATTATACACACAAATATAAATATATA [CACACA_site2843]”: the “gcPBM binding intensity (ln)” value came to 9.96 ± 0.25.

On to “AATTATATATAACGTAGTACATATTATAAACCACGT [XGTACX_site8816]”, for which the “gcPBM binding intensity (ln)” value came to 11.5 ± 0.73.

Take “TCCATGCAGAAACACACACACAAAAAAAAATTCTTT [CACACA_site4099]”: the “gcPBM binding intensity (ln)” value amounted to 10 ± 0.28.

Take “ATCTATGGGTAGTATACACACTGTATATTTAGGAAT [CACACA_site5569]”: the “gcPBM binding intensity (ln)” value worked out at 9.97 ± 0.11.

As for “ATTCTATTCTCCTTCACACACAAAAATATTTCATCA [CACACA_site2360]”, the “gcPBM binding intensity (ln)” value turned out to be 10.1 ± 0.26.

With “TTTTTGCAAAAAGAAATAATTTTATTTTAGTTCGGA [CACACA_negctrl_site1718]”, the “gcPBM binding intensity (ln)” value came out at 9.745 ± 0.007.

For the sequence “TTACGAATAAAACAGTGTACATTGAATTTCTATGAG [XGTACX_site4771]”, the “gcPBM binding intensity (ln)” value was determined as 11.2 ± 0.57.

For “AAAAAAATTACATATCCATTTTAACATAATAAATAG [GTGCAC_negctrl_site618]”, the “gcPBM binding intensity (ln)” value stood at 9.9 ± 0.13.

With “ACACATATATATTATTATTATATAATATATATATAT [CACACA_negctrl_site1545]”, the “gcPBM binding intensity (ln)” value is 9.65 ± 0.014.

With “ATATAATATTTCATGTGGACACATTTTATGATTGTA [XGTACX_site8770]”, the “gcPBM binding intensity (ln)” value worked out at 11.3 ± 0.83.

For “ACATGTTTTATGTGCACACAAAGTTGTTATGAGGTT [CACACA_site4031]”, the “gcPBM binding intensity (ln)” value was determined as 10.5 ± 0.24.

Turning to “ATATATTGAAAAAAATGTACGTATTTTTTTATGTTA [XGTACX_site4654]”, the “gcPBM binding intensity (ln)” value came to 11.4 ± 0.63.

Turning to “ATTATATATATATATACACACACACCCTAAAAATAT [CACACA_site8463]”, the “gcPBM binding intensity (ln)” value amounted to 10.4 ± 0.35.

Turning to “ATAGTAAACGAAATAAAAAGATTAGCATAATATCCT [CACACA_negctrl_site1730]”, the “gcPBM binding intensity (ln)” value came out at 9.79 ± 0.11.

“ATTGTTTATATTGATTGTACTCATTTTTTTTTTATT [XGTACX_site1946]”: the “gcPBM binding intensity (ln)” value came out at 11.5 ± 0.99.

With “ATATATTATATATATTACAACTTAAGAATATACATA [TGCATGCA_negctrl_site371]”, the “gcPBM binding intensity (ln)” value was 9.685 ± 0.021.

With “TCCTGTGATTATATAACACACATTATTGCTTATAAG [CACACA_site1518]”, the “gcPBM binding intensity (ln)” value came out at 9.85 ± 0.042.

On to “AATCAAAATTAATTAACACACAATTTTAATATTCTT [CACACA_site2063]”, for which the “gcPBM binding intensity (ln)” value is 9.76.

For the sequence “TATGAATGTATATGTTGTACATATAAATATTTATAT [XGTACX_site1146]”, the “gcPBM binding intensity (ln)” value is 11.1 ± 0.75.

As to “ATTATTATATAGTGTGCATGCAATATTAATAAAACC [TGCATGCA_site245]”, the “gcPBM binding intensity (ln)” value is 10.2 ± 0.22.

As for “TTATTAAATTTTTTTTGTACTTATATATATATATAT [XGTACX_site2443]”, the “gcPBM binding intensity (ln)” value was determined as 11.2 ± 0.79.

With “AATAAATATATTACATATATGTGTAGTATTTTTTTA [TGCATGCA_negctrl_site268]”, the “gcPBM binding intensity (ln)” value stood at 9.9 ± 0.085.

Turning to “TAAGCTTGTAACAGTTTACACACTAATATTTATAAA [CACACA_site3907]”, the “gcPBM binding intensity (ln)” value came out at 9.95 ± 0.13.

As for “AATATATTTATGCTCATGCACTTTTTTTTTTTTTTT [GTGCAC_site9654]”, the “gcPBM binding intensity (ln)” value amounted to 10.3 ± 0.16.

As for “TAATTTCTTATGTATTGTACATATAATATATGATAT [XGTACX_site4898]”, the “gcPBM binding intensity (ln)” value amounted to 10.9 ± 0.61.

Turning to “AAAATAAATAGATAAGCACACAAGCATATAGACATA [CACACA_site7958]”, the “gcPBM binding intensity (ln)” value is 9.865 ± 0.049.

For “TAGACTAATCCCAAAAGTACAGAAAAATTATATTAT [XGTACX_site8663]”, the “gcPBM binding intensity (ln)” value came to 11.3 ± 0.89.

Regarding “TATATTTACATTGTAACACACATGAAATATTTATAT [CACACA_site6178]”, the “gcPBM binding intensity (ln)” value came to 9.955 ± 0.049.

Take “TATGTTATATTATAAGGATAAATTTTGATTATATAA [TGCATGCA_negctrl_site600]”: the “gcPBM binding intensity (ln)” value is 9.81 ± 0.2.
